Measurements as given in article PMC4336329 (PLoS ONE, 2015).
In all, about 310,000 compounds went through this assay and about 14,000 (4.5%) showed an effect of 50% or more. Effects have a minus sign here. The list shows a part of the results.

Biological target: human ether-à-go-go-related gene (hERG) potassium channel (human, UniProt Q12809)
Experiment: primary screen, population patch clamp on CHO cells stably expressing hERG
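Also: peak tail current of the secondary pulse compared with the same well before compound.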

human ether-à-go-go-related gene (hERG) potassium channel, sequence (Q12809 whole entry, looked up): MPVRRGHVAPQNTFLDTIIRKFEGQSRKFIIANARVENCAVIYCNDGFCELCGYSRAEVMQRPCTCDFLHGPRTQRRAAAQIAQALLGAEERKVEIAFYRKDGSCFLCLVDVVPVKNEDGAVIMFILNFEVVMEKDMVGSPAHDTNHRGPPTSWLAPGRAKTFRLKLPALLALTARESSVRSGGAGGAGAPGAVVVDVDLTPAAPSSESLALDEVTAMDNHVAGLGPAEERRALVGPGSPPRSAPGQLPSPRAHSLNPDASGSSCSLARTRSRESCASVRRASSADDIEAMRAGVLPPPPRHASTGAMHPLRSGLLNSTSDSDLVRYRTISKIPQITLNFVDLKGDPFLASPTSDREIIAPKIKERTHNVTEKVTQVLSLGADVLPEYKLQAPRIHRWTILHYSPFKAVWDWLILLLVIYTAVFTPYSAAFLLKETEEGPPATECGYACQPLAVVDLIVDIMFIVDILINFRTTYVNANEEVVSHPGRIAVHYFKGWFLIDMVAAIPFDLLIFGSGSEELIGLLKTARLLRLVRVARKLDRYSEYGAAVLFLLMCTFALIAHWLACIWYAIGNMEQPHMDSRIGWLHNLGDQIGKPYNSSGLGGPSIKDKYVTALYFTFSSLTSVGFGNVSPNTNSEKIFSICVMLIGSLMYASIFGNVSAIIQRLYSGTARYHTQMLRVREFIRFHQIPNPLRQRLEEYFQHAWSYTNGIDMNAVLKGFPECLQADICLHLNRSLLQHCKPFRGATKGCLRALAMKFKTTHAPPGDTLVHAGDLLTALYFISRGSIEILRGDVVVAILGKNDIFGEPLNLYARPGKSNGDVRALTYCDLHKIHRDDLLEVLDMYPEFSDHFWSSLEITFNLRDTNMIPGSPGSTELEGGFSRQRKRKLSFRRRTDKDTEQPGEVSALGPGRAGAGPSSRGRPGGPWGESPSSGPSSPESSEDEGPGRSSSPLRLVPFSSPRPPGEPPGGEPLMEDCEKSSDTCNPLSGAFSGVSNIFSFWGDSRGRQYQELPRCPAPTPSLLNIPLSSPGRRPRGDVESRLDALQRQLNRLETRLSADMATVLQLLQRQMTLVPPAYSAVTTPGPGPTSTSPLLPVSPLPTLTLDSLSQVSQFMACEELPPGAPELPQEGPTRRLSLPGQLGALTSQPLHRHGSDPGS

SMILES | hERG current change (%, negative = inhibition) at 10uM [%]
COc1ccc(Nc2nnc(SCc3cc(=O)n4ccsc4n3)s2)cc1 | -68.9
Cn1cc(CC(=O)NC2CCCCC2)c2ccccc21 | 21.3
Cn1c(=O)[nH]c(=O)c2c1nc(N/N=C/c1ccncc1)n2Cc1ccc(F)cc1 | 9.38
OCCN1CNC(=S)NC1 | 7.7
COc1ccc(Cl)cc1NC(=O)c1cnccn1 | 8.97
COc1ccc2c(c1)[nH]c1c(=O)n(CCc3cnc[nH]3)cnc12 | -0.954
Nc1cccc2c1C(=O)N(CC(=O)NC13CC4CC(CC(C4)C1)C3)C2=O | 9.95
Cc1ccc(Nc2ncccc2C(=O)NCc2cccs2)c(C)c1 | 3.88
CCN(c1cccc(C)c1)S(=O)(=O)c1ccc2c(c1)NC(=O)CCS2 | 8.09
Cc1ccc(-n2nc(C(=O)O)c3ccccc3c2=O)cc1C | -1.39
CC(=O)N1CCc2c(sc(NC(=O)CCS(=O)(=O)c3ccc(C)cc3)c2C#N)C1 | -21.3
COc1ccccc1N(C(=O)c1snc(C(N)=O)c1N)C(C(=O)NC1CCCC1)c1ccc2ncccc2c1 (stereo not drawn) | -12.9
Cc1cc2c(SCC(=O)NC3CCCCC3)ncnc2s1 | -2.81
CCCCOC(=O)Oc1ccc2c(=O)c(Oc3cccc(C)c3)coc2c1 | 1.21
COc1ccc(C(=O)NNC(=O)C(Cc2ccc(O)cc2)NC(=O)c2ccccc2NC(=O)c2ccc(OC)cc2)cc1 (stereo not drawn) | 7.96
Fc1ccc(CSc2ccc3nnc(-c4cccs4)n3n2)cc1 | 17.1
O=C(Cn1ncc2c1-c1ccccc1OC2)N(Cc1ccco1)C1CCCCC1 | -20
Cc1ccc(OCC(=O)Nc2oc(-c3ccccc3)c(-c3ccccc3)c2C#N)cc1 | 17.7
CC1CN=C(Nc2cccc(S(=O)(=O)N(C)C)c2)S1 (stereo not drawn) | 19.7
CNC(=O)/C(C#N)=C/c1cn(CC(=O)OC)c2ccccc12 | -16.2
CCOC(=O)c1cc(C(C)(C)C)n(CCCN2CCOCC2)c1C | 2.53
CCC1(c2ccc(F)cc2)NC(=O)N(CC(=O)Nc2cccnc2Cl)C1=O (stereo not drawn) | -7.47
O=C1CC(N(CCc2ccccc2)C(=S)Nc2ccccc2)C(=O)N1c1ccc(F)cc1 (stereo not drawn) | 18.2

SMILES | hERG current change (%, negative = inhibition) at 10uM [%]
CCCC(=O)N(c1ccc(OCC)cc1)S(=O)(=O)c1ccc2c3c(cccc13)C(=O)N2C | 3.23
CC(Oc1ccccc1)C(=O)N1CCC2(CC1)Oc1ccc(Cl)cc1C(=O)C21CC(c2ccccc2)=NO1 (stereo not drawn) | 7.46
CC1(C)CC(=O)N(c2ccc(Cl)cc2Cl)C(=O)C1 | 12.9
O=[N+]([O-])c1cccc2c(Cl)ccnc12 | -0.808
COCCNC(=O)CCCCCN1C(=O)CCC1=O | 10.7
COc1cccc(-n2c(SCC(=O)NC(C)(C)C)nnc2-c2ccoc2C)c1 | -64.5
COCc1nnc(N)s1 | 0.247
O=c1[nH]c2ccccc2nc1NCCN1CCOCC1 | -12.7
CC1CC1C(=O)OCC(=O)NCc1ccccc1Cl (stereo not drawn) | 1.69
C(=N/N1CCN(c2ccccc2)CC1)/c1cccs1 | -3.63
CCN(CCO)c1ncnc2c1sc1nc(C(C)C)c3c(c12)CC(C)(C)OC3 | -3.74
COc1ccc(CNC(=O)c2nn(-c3ccccc3)cc2OC)cc1 | -5.22
COc1ccccc1-c1ccc(C(=O)O)o1 | 7.06
Cc1ccc(N(C(=O)c2ccco2)C2C=CS(=O)(=O)C2)cc1 (stereo not drawn) | -6
CS(=O)(=O)N(CC(=O)NCCSC1CCCCC1)c1ccc2c(c1)OCO2 | -11.8
O=C1OCCC1Sc1nnc(-c2ccc(O)cc2)o1 (stereo not drawn) | 10.2
CSc1ccccc1OCc1cc(C(=O)NCc2ccc(C)s2)no1 | 6.76
CCN(CC(=O)NCc1ccco1)S(=O)(=O)c1ccc(F)cc1 | 5.61
Nc1nc2n(n1)C1(CCCCC1)C1=C(CCCC1)N2 | -9.89
CC1=NN(C)C(=O)C1Cc1c(F)cccc1Cl (stereo not drawn) | 4.55
CCc1cccc(OCC(=O)Nc2cc(S(=O)(=O)N3CCOCC3)ccc2N2CCCC2)c1 | -4.88
COc1ccccc1/C=N/NC(=O)c1[nH]c(C)c(C(=O)N/N=C/c2ccccc2OC)c1C | 9.14
CC(=O)N1CCCc2cc(S(=O)(=O)N3CCN(C4CCCCC4)CC3)ccc21 | -4.48

SMILES | hERG current change (%, negative = inhibition) at 10uM [%]
COc1ccc(CC(=O)Nc2c(C(N)=O)oc3ccccc23)cc1OC | 11.4
CC(C)C(NS(=O)(=O)c1cccc2nsnc12)C(=O)NC1CCCCC1C (stereo not drawn) | 8.1
COc1ccc(CN2CCCC(N3CCN(c4ccc(OC)cc4)CC3)C2)cc1 (stereo not drawn) | -45
CN(C)CC(=O)c1c(N)n(Cc2ccccc2)c(=O)n(C)c1=O | -7.58
COc1ccc(NC(=O)c2cccnn2)cc1 | 22.6
Cc1ccc(-c2csc(NC(=O)c3ccccc3F)c2C(=O)O)cc1 | 17.6
COc1ccc(S(=O)(=O)c2ccc(O)cc2)cc1 | -24.5
N#Cc1ccc2[nH]c(CO)c(-c3ccccc3)c2c1 | -34.2
C=CCn1c(O)c(Cc2ccc(OCC)cc2)c(=O)[nH]c1=O | 15.4
Cc1cc(C)n(CC(O)COc2ccc(Cl)cc2Cl)n1 (stereo not drawn) | -6.86
O=C(c1cccnc1Cl)N(Cc1ccccc1)Cc1ccccc1 | -17.7
CCOC(=O)c1c(C)n(C)c2ccc(OC(=O)c3ccc(N4C(=O)CCC4=O)cc3)cc12 | 0.0761
c1ccc(C2=NN(c3ccccc3)C(c3ccco3)C2)cc1 (stereo not drawn) | 13.1
O=C(Nc1cccnc1)C1CCCN(c2ncnc3c2nc2n3CCCCC2)C1 (stereo not drawn) | -36
CCOc1ccc(OCCC(=O)N(CCC2=CCCCC2)c2c(N)n(Cc3ccccc3)c(=O)[nH]c2=O)cc1 | 5.08
Cc1ccccc1N=C1SCC(=O)N1Cc1ccccc1 | -6.74
O=C(CSc1nc2ccccc2o1)N1c2ccccc2Sc2ccc(C(F)(F)F)cc21 | 12.6
CCc1nc(SCc2ccc(F)cc2)n[nH]1 | 8.02
COc1ccc2[nH]c(=O)c(-c3nnn(-c4ccccc4)n3)cc2c1 | -1.01
O=C(COc1ccc(Cl)cc1)NNC(=S)NCc1ccccc1 | 19.4
O=C(COc1cccc(-n2cnnn2)c1)Nc1ccc([N+](=O)[O-])cc1 | -43.6
COc1ccc(N(CC(=O)N2CCC(C(N)=O)CC2)S(=O)(=O)c2ccccc2)cc1 | 17.5
CCc1cc2c(N3CCN(C(=O)c4ccco4)CC3)ncnc2s1 | -77.7

SMILES | hERG current change (%, negative = inhibition) at 10uM [%]
C1CCN(c2nc(N3CCCCC3)nc(N3CCNCC3)n2)CC1 | -7.81
CC(=O)N(c1ccc(Cl)cc1)c1nc(C)cc(C)c1C#N | 3.5
O=C(c1ccccc1S(=O)(=O)NCc1ccccc1)N1CCCCC1 | -10.2
O=C(C1CC(=O)N(c2ccc(Br)cc2)C1)N1CCCC1 (stereo not drawn) | -9.86
NC(=O)CSc1nnc(NC(=O)c2ccc(S(=O)(=O)N3CCOCC3)cc2)s1 | -9.18
O=C(NC1CC1)c1cc(-c2ccccn2)nc2ccccc12 | -29.5
CCN(Cc1nc(-c2ccc(OC)cc2)no1)C(=O)c1ccoc1C | 5.13
Cc1nn(Cc2c(Cl)cccc2Cl)c(C)c1NC(=O)CCCn1nc([N+](=O)[O-])c(Cl)c1C | -19.6
CC1CCC(N(C(=O)c2csnn2)C(C(=O)NC(C)(C)C)c2cccnc2)CC1 (stereo not drawn) | -20.3
Cc1ccc(S(=O)(=O)N2CCN(C(=O)CSC(=S)N3CCCC3)CC2)c(C)c1 | -15.1
CCCCc1nc2cc(C(=O)N(C)CCc3cn[nH]c3)ccc2o1 | 5.84
CCOc1ccc(C(=O)O/N=C(\N)c2ccc([N+](=O)[O-])cc2)cc1OCC | -6.93
CS(=O)(=O)N1CCN(c2nc3ccccc3s2)CC1 | 0.669
CC(C)CCNc1nc(N)c([N+](=O)[O-])c(NC2CCCCC2)n1 | 16.2
Cc1sc2nc(SCC(=O)NCc3ccco3)n(C)c(=O)c2c1C | -16.3
CC(C)CN(CC(C)C)C(=O)c1cccc(S(=O)(=O)N2CCc3ccccc32)c1 | -24.9
COc1ccc(C(NC(C)=O)c2nccc3cc(OC)c(OC)cc23)cc1OC (stereo not drawn) | 15.1
O=C(Cc1ccc(Cl)cc1)Nc1ccc(Br)cc1 | 3.47
O=C(COc1ccc(NC(=O)c2ccccc2[N+](=O)[O-])cc1)c1ccc(F)cc1 | 2.93
Cc1ccc(C(=O)OCC(=O)NC(=O)c2cccn2C)cc1[N+](=O)[O-] | 8.96
CCCn1c(=NC(C)=O)c(C(=O)OCC)cc2c(=O)n3ccccc3nc21 | -9.98
